Data taken from the supplement of paper PMC9135407.
“And” between values parts separate entries of the source, which are not always exact repeats. Equal values may be shown once. Where a name gives a salt, the structure may show the parent alone. The campaign covered roughly 5,800 compounds. About 620 (11%) showed activity.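 The calls were made as follows: active = score above a cut-off or among the top three wells of a plate; in these data no inactive exceeds 0.85.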 The entries are a selection whose mix differs from that of the whole data set.

Tested on: primary human hepatic stellate cells (donor 1)
Assay: scaled lipid accumulation score (0 = DMSO-like, 1 = nortriptyline-like); higher = stronger HSC inactivation (lipid re-accumulation), active = hit call of the paper
Conditions: 48 h
[1] = library stock concentration: 10 mM
[2] = library stock concentration: 1 mM
[3] = library stock concentration: 3.33 mM
[4] = library stock concentration: 80 uM
[5] = library stock concentration: 400 uM
[6] = library stock concentration: 2 mM

CC(=O)c1ccc(S(=O)(=O)NC(=O)NC2CCCCC2)cc1 [Acetohexamide]
scaled lipid accumulation score: inactive: ≤ 0
scaled lipid accumulation score (library stock concentration: 6.2 mM): inactive: ≤ 0
scaled lipid accumulation score [1]: inactive: 0.116

CCSC(=N)N [EIT hydrobromide]
scaled lipid accumulation score [1]: inactive: ≤ 0

CCSC(=N)N [S-ethyl Isothiourea (hydrobromide)]
scaled lipid accumulation score [2]: inactive: 0.007

CCSC(=N)N [S-Ethylisothiourea hydrobromide]
scaled lipid accumulation score [1]: inactive: 0.211

O=C(O)CCC/C=C\C[C@@H]1[C@@H](/C=C/[C@@H](O)C2CCCCC2)[C@H](O)C[C@@H]1O [15-cyclohexyl pentanor Prostaglandin F2.alpha.]
scaled lipid accumulation score [2]: inactive: ≤ 0

CCCCC[C@H](O)/C=C/[C@@H]1[C@@H](C/C=C\CCCC(=O)O)[C@@H](O)C[C@H]1O [Prostaglandin F2a]
scaled lipid accumulation score [2]: inactive: ≤ -0.021

CCCCC[C@H](O)/C=C/[C@@H]1[C@@H](C/C=C\CCCC(=O)O)[C@@H](O)C[C@H]1O [Prostaglandin F2.alpha. (tromethamine salt)]
scaled lipid accumulation score [2]: inactive: ≤ 0

CCCCC[C@H](O)/C=C/[C@@H]1[C@@H](C/C=C\CCCC(=O)O)[C@@H](O)C[C@H]1O [Prostaglandin F2.alpha.]
scaled lipid accumulation score [2]: inactive: ≤ 0

CCCCC[C@H](O)/C=C/[C@@H]1[C@@H](C/C=C\CCCC(=O)O)[C@@H](O)C[C@H]1O [Dinoprost trometamol]
scaled lipid accumulation score: inactive: 0.001

CCOC(=O)c1ccc(OC(=O)CCCCCNC(=N)N)cc1 [Gabexate mesylate]
scaled lipid accumulation score [1]: inactive: ≤ -0.006

CCOC(=O)c1ccc(OC(=O)CCCCCNC(=N)N)cc1
scaled lipid accumulation score [1]: inactive: ≤ 0

CCOC(=O)c1ccc(OC(=O)CCCCCNC(=N)N)cc1 [Gabexate mesilate]
scaled lipid accumulation score: inactive: ≤ 0

CSc1nc(NC2CCCC2)c([N+](=O)[O-])c(NC2CCCC2)n1
scaled lipid accumulation score [1]: inactive: ≤ -0.001

CCC(=O)N1CCN(C(=O)c2ccccc2)CC1
scaled lipid accumulation score [1]: inactive: 0.027

O=C(NC1CCN(CCCCC2(C(=O)NCC(F)(F)F)c3ccccc3-c3ccccc32)CC1)c1ccccc1-c1ccc(C(F)(F)F)cc1 [Lomitapide]
scaled lipid accumulation score [1]: inactive: ≤ 0

OC[C@H]1O[C@H]([S-])[C@H](O)[C@@H](O)[C@@H]1O.[Au+] [Aurothioglucose]
scaled lipid accumulation score (library stock concentration: 5.1 mM): inactive: 0.336
scaled lipid accumulation score [1]: inactive: 0.397

CCCN[C@H]1CCc2nc(N)sc2C1
scaled lipid accumulation score [1]: inactive: ≤ 0

CCCN[C@H]1CCc2nc(N)sc2C1 [Pramipexole]
scaled lipid accumulation score [3]: inactive: ≤ 0
scaled lipid accumulation score (library stock concentration: 9.5 mM): inactive: ≤ 0
scaled lipid accumulation score [1]: inactive: ≤ 0

Cc1cc(=O)oc2cc(O)ccc12
scaled lipid accumulation score [1]: inactive: ≤ 0

Cc1cc(=O)oc2cc(O)ccc12 [4-Methylumbelliferone (4-MU)]
scaled lipid accumulation score [3]: inactive: ≤ 0
scaled lipid accumulation score [1]: inactive: ≤ 0

Cc1cc(=O)oc2cc(O)ccc12 [Hymecromone]
scaled lipid accumulation score: inactive: ≤ 0

CNC(=O)c1cc2c(cn1)[nH]c1ccccc12
scaled lipid accumulation score [1]: inactive: 0.022

CNC(=O)c1cc2c(cn1)[nH]c1ccccc12 [N-Methyl-beta-carboline-3-carboxamide]
scaled lipid accumulation score [1]: inactive: 0.359

OCCCNc1cc(-c2ccnc(Nc3cccc(Cl)c3)n2)ccn1
scaled lipid accumulation score [4]: inactive: 0.137
scaled lipid accumulation score [5]: inactive: 0.324
scaled lipid accumulation score [6]: inactive: 0.587

O=c1ncccn1[C@@H]1O[C@H](CO)[C@@H](O)[C@H]1O [Zebularine]
scaled lipid accumulation score [3]: inactive: ≤ -0.009
scaled lipid accumulation score [1]: inactive: ≤ 0 and inactive: ≤ -0.001

O=C(CCCCCCNC(=O)c1cnc(N(c2ccccc2)c2ccccc2)nc1)NO [Rocilinostat]
scaled lipid accumulation score [4]: inactive: ≤ 0
scaled lipid accumulation score [5]: inactive: ≤ 0
scaled lipid accumulation score [6]: inactive: ≤ 0
scaled lipid accumulation score [1]: inactive: 0.052

O=C(CCCCCCNC(=O)c1cnc(N(c2ccccc2)c2ccccc2)nc1)NO [Rocilinostat (ACY-1215)]
scaled lipid accumulation score [3]: inactive: 0.005
scaled lipid accumulation score [1]: inactive: 0.688

CN(C)CCN(Cc1cccs1)c1ccccn1 [Methapyrilene hydrochloride]
scaled lipid accumulation score: inactive: 0.366
scaled lipid accumulation score (library stock concentration: 6.7 mM): inactive: 0.068
scaled lipid accumulation score [1]: inactive: 0.38 and inactive: 0.249

COc1c(O[C@@H]2O[C@H](CO)[C@@H](O)[C@H](O)[C@H]2O)cc2c(c1OC)-c1ccc(SC)c(=O)cc1[C@@H](NC(C)=O)CC2 [Thiocolchicoside]
scaled lipid accumulation score: inactive: 0.025

CCCCCCCCCCCCCCCCCCCCCCCCC(=O)OC [Pentacosanoic Acid methyl ester]
scaled lipid accumulation score [2]: inactive: ≤ 0

CC(=O)c1ccc2c(c1)N(CCCN(C)C)c1ccccc1S2.O=C(O)/C=C\C(=O)O [Acepromazine maleate]
scaled lipid accumulation score [1]: active: 0.989

CN1CCC(=C2c3ccccc3CC(=O)c3sccc32)CC1.O=C(O)/C=C/C(=O)O [Ketotifen fumarate]
scaled lipid accumulation score [1]: active: 0.913

NC(CO)(CO)CO [Trometamol]
scaled lipid accumulation score [3]: inactive: ≤ 0
scaled lipid accumulation score [1]: inactive: ≤ -0.001

CCCCCCCCCCCCCC=CC(O)C(COP(=O)(O)O)NC(=O)CCCCCCC (stereo not given) [C-8 Ceramide-1-phosphate]
scaled lipid accumulation score [2]: inactive: ≤ 0

COc1ccccc1CNC1CCCNC1c1ccccc1 (stereo not given)
scaled lipid accumulation score [1]: inactive: 0.474

N#Cc1ccccc1OCC(O)CNCCNC(=O)Nc1ccccc1 (stereo not given)
scaled lipid accumulation score [1]: inactive: 0.135

Clc1ccc(C(Cn2ccnc2)OCc2c(Cl)cccc2Cl)c(Cl)c1 (stereo not given) [Isoconazole]
scaled lipid accumulation score: inactive: ≤ 0

Clc1ccc(C(Cn2ccnc2)OCc2c(Cl)cccc2Cl)c(Cl)c1 (stereo not given) [Isoconazole nitrate]
scaled lipid accumulation score [3]: inactive: 0.019
scaled lipid accumulation score [1]: inactive: 0.233

NCCC[C@H](N)C(=O)O
scaled lipid accumulation score [1]: inactive: 0.09

CC(C)n1nc(-c2cc3cc(O)ccc3[nH]2)c2c(N)ncnc21
scaled lipid accumulation score [3]: inactive: 0.1
scaled lipid accumulation score [1]: inactive: 0.011

C1=CCOCc2cc(ccc2OCCN2CCCC2)Nc2nccc(n2)-c2cccc(c2)COC1 [Pacritinib]
scaled lipid accumulation score [1]: active: 0.932

CCOC(=O)C1=C(C)NC(C)=C(C(=O)OCC)C1c1c(F)c(F)c(F)c(F)c1F [Nemadipine-A]
scaled lipid accumulation score [1]: inactive: 0.282

NC(=O)N1c2ccccc2C=Cc2ccccc21 [Carbamazepine]
scaled lipid accumulation score: inactive: ≤ 0
scaled lipid accumulation score [3]: inactive: 0.025
scaled lipid accumulation score [1]: inactive: ≤ 0 and inactive: 0.28

NC(=O)N1c2ccccc2C=Cc2ccccc21
scaled lipid accumulation score [1]: inactive: ≤ 0

O=c1cc(-c2ccc(O)cc2)oc2cc(O)cc(O)c12 [Apigenin]
scaled lipid accumulation score: inactive: ≤ 0
scaled lipid accumulation score [3]: inactive: 0.01
scaled lipid accumulation score [1]: inactive: ≤ 0 and inactive: ≤ -0.006 and inactive: ≤ -0.008

CO[C@H]1/C=C/O[C@@]2(C)Oc3c(C)c(O)c4c(c3C2=O)C2=NC3(CCN(CC(C)C)CC3)NC2=C(NC(=O)/C(C)=C\C=C\[C@H](C)[C@H](O)[C@@H](C)[C@@H](O)[C@@H](C)[C@H](OC(C)=O)[C@@H]1C)C4=O
scaled lipid accumulation score [1]: inactive: ≤ 0

CO[C@H]1/C=C/O[C@@]2(C)Oc3c(C)c(O)c4c(c3C2=O)C2=NC3(CCN(CC(C)C)CC3)NC2=C(NC(=O)/C(C)=C\C=C\[C@H](C)[C@H](O)[C@@H](C)[C@@H](O)[C@@H](C)[C@H](OC(C)=O)[C@@H]1C)C4=O [Rifabutin]
scaled lipid accumulation score: inactive: ≤ 0
scaled lipid accumulation score [1]: inactive: ≤ 0

C[C@H](NC(=O)c1sccc1OCc1ccc(Cl)cc1)c1ccccc1
scaled lipid accumulation score [1]: inactive: ≤ 0

CCCCC[C@H](O)/C=C/[C@@H]1[C@H](C/C=C\CCCC(=O)O)[C@@H](O)C[C@H]1O [8-iso Prostaglandin F2.alpha.]
scaled lipid accumulation score [2]: inactive: ≤ 0

CCCCCCCCCCCCCCCC(=O)NC(C)C [Palmitoyl N-Isopropylamide]
scaled lipid accumulation score [2]: inactive: ≤ 0

CC(Cc1ccccc1)Nc1ncnc2c1ncn2C1OC(CO)C(O)C1O (stereo not drawn) [R(-)-N6-(2-Phenylisopropyl)adenosine]
scaled lipid accumulation score [1]: inactive: ≤ -0.055

c1cnc2cc3c(cc2n1)[C@@H]1CNC[C@H]3C1 [Varenicline tartrate]
scaled lipid accumulation score [1]: inactive: ≤ 0

C[C@@H](N)[C@H]1CC[C@H](C(=O)Nc2ccncc2)CC1
scaled lipid accumulation score [4]: inactive: ≤ -0.009
scaled lipid accumulation score [5]: inactive: ≤ -0.009
scaled lipid accumulation score [6]: inactive: ≤ -0.001
scaled lipid accumulation score [3]: inactive: 0.053
scaled lipid accumulation score [1]: inactive: ≤ 0 and inactive: 0.719 and inactive: 0.14
scaled lipid accumulation score (library stock concentration: 20.2 mM): inactive: ≤ -0.012

CN1CCC[C@@H]1CCO[C@](C)(c1ccccc1)c1ccc(Cl)cc1 [Clemastine fumarate]
scaled lipid accumulation score (library stock concentration: 5.8 mM): active: 0.885

NC[C@H]1O[C@@H](n2cnc3c(N)ncnc32)[C@H](O)[C@@H]1O [5'-Amino-5'-deoxyadenosine p-toluenesulfonate salt]
scaled lipid accumulation score [1]: inactive: ≤ 0

O=C(Cn1ccnc1[N+](=O)[O-])NCCO [Etanidazole]
scaled lipid accumulation score: inactive: ≤ 0
scaled lipid accumulation score (library stock concentration: 9.3 mM): inactive: ≤ 0

CCc1cc(C(C)=O)c(O)cc1OCCCCCC(C)(C)c1nn[nH]n1
scaled lipid accumulation score [2]: inactive: 0.055
scaled lipid accumulation score [1]: inactive: ≤ -0.001

CC(=O)OCC(COC(C)=O)OC(C)=O [Triacetin]
scaled lipid accumulation score (library stock concentration: 9.2 mM): inactive: ≤ 0
scaled lipid accumulation score [1]: inactive: ≤ 0

CC/C=C\C/C=C\C/C=C\CCCCCCCC(=O)NCCO [.alpha.-Linolenoyl Ethanolamide]
scaled lipid accumulation score [2]: inactive: 0.006

Cc1cc(C)c(N(Cc2ccccc2)S(=O)(=O)c2ccc(OCCNC(=O)c3cc4ccccc4o3)cc2)c(C(=O)NO)c1
scaled lipid accumulation score [1]: inactive: ≤ -0.001

CN1CC[C@H](c2c(O)cc(O)c3c(=O)cc(-c4ccccc4Cl)oc23)[C@H](O)C1
scaled lipid accumulation score [5]: inactive: 0.4
scaled lipid accumulation score [6]: inactive: 0.203
scaled lipid accumulation score [1]: inactive: ≤ -0.005

CN1CC[C@H](c2c(O)cc(O)c3c(=O)cc(-c4ccccc4Cl)oc23)[C@H](O)C1 [Flavopiridol]
scaled lipid accumulation score [4]: inactive: 0.406
scaled lipid accumulation score [5]: inactive: 0.315
scaled lipid accumulation score [6]: inactive: 0.225
scaled lipid accumulation score [1]: inactive: 0.265

CN1CC[C@H](c2c(O)cc(O)c3c(=O)cc(-c4ccccc4Cl)oc23)[C@H](O)C1 [Flavopiridol HCl]
scaled lipid accumulation score [3]: inactive: 0.286
scaled lipid accumulation score [1]: inactive: 0.132
